In patent US20200197485A1 (ONCOIMMUNE, published 2020):

Biological target: T1, Siglec-10Fc (human, UniProt Q96LC7 17-546)
T1 construct: not shown: Fc part of Siglec-10Fc
T1 sequence (looked up): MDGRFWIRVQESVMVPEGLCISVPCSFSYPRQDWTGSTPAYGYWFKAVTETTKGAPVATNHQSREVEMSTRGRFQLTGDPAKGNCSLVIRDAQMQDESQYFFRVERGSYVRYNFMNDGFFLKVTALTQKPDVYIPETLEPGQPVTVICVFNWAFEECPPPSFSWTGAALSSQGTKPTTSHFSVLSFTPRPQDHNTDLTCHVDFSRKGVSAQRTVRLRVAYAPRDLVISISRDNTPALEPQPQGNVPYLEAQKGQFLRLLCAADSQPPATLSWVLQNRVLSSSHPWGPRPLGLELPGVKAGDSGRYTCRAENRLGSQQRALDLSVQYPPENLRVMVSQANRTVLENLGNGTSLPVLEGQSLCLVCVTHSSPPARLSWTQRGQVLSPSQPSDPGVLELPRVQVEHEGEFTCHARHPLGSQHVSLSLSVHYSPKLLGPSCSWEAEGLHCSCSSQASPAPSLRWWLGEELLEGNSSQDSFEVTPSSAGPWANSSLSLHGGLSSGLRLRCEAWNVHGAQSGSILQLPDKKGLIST
Test: Biacore (SPR): CD24Fc immobilized on the chip, Siglec-10Fc injected at different concentrations (0 to about 9x10-7 M). Steady-state response in RU plotted against Siglec 10 concentration.

B1: CD24Fc fusion protein (mature human CD24 lacking the final polymorphic amino acid, fused to human IgG1 Fc), processed version (Fc fusion)
chain: SETTTGTSSNSSQSTSNSGLAPNPTNATT[human IgG1 Fc skipped]
notes: also called CD24Ig; CD24IgG1
- Kd: 162 nM
